The source of these data is article PMC3335838.

No constants are given. Whether binding was seen depends on the method and setting. Some results given as binding are weak or reduced against the parent protein; the word gives no strength. Where a sequence is shown, tags or fusion partners need not be part of it.

To fix the notation:
T1: DRB4 (Double-stranded RNA Binding protein 4), full length, yeast two-hybrid fusion (Arabidopsis) (UniProt Q8H1D4)
T1 sequence: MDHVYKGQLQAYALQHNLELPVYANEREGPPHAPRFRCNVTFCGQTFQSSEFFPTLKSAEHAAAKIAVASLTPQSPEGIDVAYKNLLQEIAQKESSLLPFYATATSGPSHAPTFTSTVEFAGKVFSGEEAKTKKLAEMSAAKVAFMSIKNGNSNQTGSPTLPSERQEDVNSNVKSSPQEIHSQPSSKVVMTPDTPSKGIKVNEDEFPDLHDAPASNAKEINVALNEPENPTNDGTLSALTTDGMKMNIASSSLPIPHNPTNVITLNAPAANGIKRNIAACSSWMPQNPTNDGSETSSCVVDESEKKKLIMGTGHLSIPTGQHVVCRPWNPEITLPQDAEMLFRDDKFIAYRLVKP

B1: APC10/DOC1, yeast two-hybrid fusion (protein, UniProt Q9ZPW2 1-192)
chain: MATESSESEEEGKISGGNYKLIIDDDLREMGKNAAWSVSSCKPGNGVTTLRDDNLETYWQSDGLQPHLINIQFQKKVKLQLVVLYVDFKLDESYTPSKISIRAGDGFHNLKEIKSVELVKPTGWVCLSLSGTDPRETFVNTFMLQIAILSNHLNGRDTHIRQIKVYGPRPNPIPHQPFQFTSMEFLTYSTLR
B2: CDC20-1, yeast two-hybrid fusion (protein, UniProt Q9SZA4 1-457)
chain: MDAGMNNTSSHYKTQARCPLQEHFLPRKPSKENLDRFIPNRSAMNFDYAHFALTEGRKGKDQTAAVSSPSKEAYRKQLAETMNLNHTRILAFRNKPQAPVELLPSNHSASLHQQPKSVKPRRYIPQTSERTLDAPDIVDDFYLNLLDWGSANVLAIALDHTVYLWDASTGSTSELVTIDEEKGPVTSINWAPDGRHVAVGLNNSEVQLWDSASNRQLRTLKGGHQSRVGSLAWNNHILTTGGMDGLIINNDVRIRSPIVETYRGHTQEVCGLKWSGSGQQLASGGNDNVVHIWDRSVASSNSTTQWLHRLEEHTSAVKALAWCPFQANLLATGGGGGDRTIKFWNTHTGACLNSVDTGSQVCSLLWSKNERELLSSHGFTQNQLTLWKYPSMVKMAELTGHTSRVLYMAQSPDGCTVASAAGDETLRFWNVFGVPETAKKAAPKAVSEPFSHVNRIR
B3: CDC20-4, yeast two-hybrid fusion (protein, UniProt Q4PSE4 1-444)
chain: MDSGMRATCTVPEHFLPRKLSKQNLDRFIPNRSAKDFDFANYALTQGSKRNLDEVTSASRKAYMTQLAVVMNQNRTRILAFRNKPKSLLSTNHSDSPHQNPKPVKPRRYIPQNSERVLDAPGLRDDFSLNLLDWGSANVLAIALGDTVYLWDASSGSTSELVTIDEDKGPVTSINWTQDGLDLAVGLDNSEVQLWDCVSNRQVRTLRGGHESRVGSLAWDNHILTTGGMDGKIVNNDVRIRSSIVETYLGHTEEVCGLKWSESGNKQASGGNDNVVHIWDRSLASSKQTRQWLHRFEEHTAAVRALAWCPFQASLLATGGGVGDGKIKFWNTHTGACLNSVETGSQVCSLLWSQSERELLSSHGFTQNQLTLWKYPSMSKMAELNGHTSRVLFMAQSPNGCTVASAAGDENLRLWNVFGEPPKTTKKAASKKYPELFSHVNSLR
B4: CDC20-2, yeast two-hybrid fusion (protein, UniProt Q9S7I8 1-447)
chain: MDAGLNRCPLQEHFLPRKNSKENLDRFIPNRSAMNFDYAHFALTEERKGKDQSATVSSPSKEAYRKQLAETMNLNHTRILAFRNKPQAPVELLPSNHSASLHQQPKSVKPRRYIPQTSERTLDAPDIVDDFYLNLLDWGSANVLAIALDHTVYLWDASTGSTSELVTIDEEKGPVTSINWAPDGRHVAVGLNNSEVQLWDSASNRQLRTLKGGHQSRVGSLAWNNHILTTGGMDGLIINNDVRIRSPIVETYRGHTQEVCGLKWSGSGQQLASGGNDNVVHIWDRSVASSNSTTQWLHRLEEHTSAVKALAWCPFQANLLATGGGGGDRTIKFWNTHTGACLNSVDTGSQVCSLLWSKNERELLSSHGFTQNQLTLWKYPSMVKMAELTGHTSRVLYMAQSPDGCTVASAAGDETLRFWNVFGVPETAKKAAPKAVAEPFSHVNRIR
B5: CDC20-3, yeast two-hybrid fusion (protein, UniProt Q9S7H3 1-442)
chain: MDSDTCTVPDHFLPRKLSKQNLDRFIPNRSAMDFDFANYALTQGRKRNVDEITSASRKAYMTQLAVVMNQNRTRILAFRNKPKALLSSNHSDSPHQNPKSVKPRRYIPQNSERVLDAPGLMDDFYLNLLDWGSANVLAIALGDTVYLWDASSGSTSELVTIDEDKGPVTSINWTQDGLDLAVGLDNSEVQLWDFVSNRQVRTLIGGHESRVGSLAWNNHILTTGGMDGKIVNNDVRIRSSIVGTYLGHTEEVCGLKWSESGKKLASGGNYNVVHIWDHRSVASSKPTRQWLHRFEEHTAAVRALAWCPFQATLLATGGGVGDGKIKFWNTHTGACLNSVETGSQVCSLLWSQRERELLSSHGFTQNQLTLWKYPSMSKMAELNGHTSRVLFMAQSPNGCTVASAAGDENLRLWNVFGEPPKTTKKAASKNYLELFSHVNSLR

The target in the test is T1, DRB4 (Double-stranded RNA Binding protein 4), full length, yeast two-hybrid fusion (Arabidopsis). As to the kind of experiment: two-hybrid; pair-wise, cross-mating of S. cerevisiae PJ69-4a and PJ69-4 alpha; diploids on SD-LW, interactions selected on -LWA; 28°C for 3 days (Figure 2).
As for B1, the binding result is “binds”.
Then B2, with “no binding”.
For the molecule B3, the binding result is given as “no binding”.
In the case of B4 it was “no binding”.
Regarding B5, the binding entry is given as “no binding”.
